# Measured values published in paper PMC2394266, “Downregulation of urokinase plasminogen activator receptor expression inhibits Erk signalling with concomitant suppression of invasiveness due to loss of uPAR–β1 integrin complex in colon cancer cells” (British Journal of Cancer, 2003).
# B1: urokinase plasminogen activator receptor (receptor)
# chain: not shown
# Target: β1 integrin (human (endogenous in HCT116), UniProt P05556)
# Experiment: cell-based or functional assay
# β1 integrin, sequence (P05556 21-798): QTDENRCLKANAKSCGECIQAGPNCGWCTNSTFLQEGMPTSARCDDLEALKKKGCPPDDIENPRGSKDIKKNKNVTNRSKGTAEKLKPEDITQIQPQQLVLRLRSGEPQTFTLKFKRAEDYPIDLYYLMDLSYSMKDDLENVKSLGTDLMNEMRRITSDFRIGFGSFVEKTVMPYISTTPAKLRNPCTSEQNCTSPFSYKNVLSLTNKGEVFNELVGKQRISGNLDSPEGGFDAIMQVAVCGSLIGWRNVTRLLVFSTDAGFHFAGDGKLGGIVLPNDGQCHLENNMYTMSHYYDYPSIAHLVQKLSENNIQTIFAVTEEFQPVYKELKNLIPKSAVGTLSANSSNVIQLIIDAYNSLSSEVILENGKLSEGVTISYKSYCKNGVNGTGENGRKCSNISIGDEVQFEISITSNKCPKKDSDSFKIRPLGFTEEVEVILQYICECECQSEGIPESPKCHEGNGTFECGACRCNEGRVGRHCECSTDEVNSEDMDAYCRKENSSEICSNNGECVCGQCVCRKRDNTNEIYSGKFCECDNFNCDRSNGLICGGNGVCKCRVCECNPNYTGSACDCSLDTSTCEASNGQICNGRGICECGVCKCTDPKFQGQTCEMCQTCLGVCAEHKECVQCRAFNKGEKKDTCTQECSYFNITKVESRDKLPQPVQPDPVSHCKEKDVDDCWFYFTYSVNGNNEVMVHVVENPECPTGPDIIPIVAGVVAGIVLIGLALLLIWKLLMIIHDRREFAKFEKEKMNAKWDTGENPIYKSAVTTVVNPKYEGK
binder,measurement,value
B1,"suppression of pro-MMP-2 secretion (gelatin zymography, densitometry) by mock HCT116 cells with P25 peptide (100 μM)",7 fold
same,"suppression of pro-MMP-9 secretion (gelatin zymography, densitometry) by mock HCT116 cells with P25 peptide (100 μM)",3 fold
same,"uPA (20 nM, 30 min)-induced Erk activation (phospho-Erk1/2 Western blot, densitometry) in acid-stripped mock HCT116 cells in the presence of P25 peptide (100 μM), which disrupts the complex",1.6 fold
same,"uPA (20 nM, 30 min)-induced Erk activation (phospho-Erk1/2 Western blot, densitometry) in acid-stripped mock HCT116 cells, control and Scp-treated (100 μM)",2.5 fold
